In PubChem BioAssay AID493208 (National Center for Advancing Translational Sciences (NCATS), 2011):
The whole screen tested about 44,000 compounds, of which about 340 (0.77%) were called active. Inconclusive results (about 5%) are left out. Calls follow the shape of the dose curve; as a rule, active = well fitted inhibition curve with a large enough effect; inconclusive = small, poorly fitted or top-dose-only effect; inactive = flat fitted curve, though single readings scatter. Some of the results follow.

assay: Acumen qHTS Assay for Inhibitors of the mTORC1 Signaling Pathway in MEF (Tsc2-/-, p53-/-) Cells: Sytravon; details: phospho-rpS6 immunofluorescence/PI, 24 h; series mostly up to 38.3 µM; activity change, negative = inhibition: at the top concentration;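 also: plate controls were DMSO for no effect and rapamycin for full effect; nearly all actives have a fitted effect of over 50% in size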
Summary of the method: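 Compounds act on Tsc2-/-, p53-/- fibroblasts carrying an empty vector for 24 h before fixation and dual staining for phospho-S6 and DNA (propidium iodide). Values are percentages of cells above a rapamycin-defined pS6/PI threshold.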

Activity change, negative = inhibition, inactive:
O=S(=O)(c1ccc2nc(N3CCN(c4ccccc4F)CC3)ccc2c1)N1CCCCC1 0.942%
Cc1nc(-n2nc(C)c(CCC(C)C)c2C)sc1C(=O)Nc1ccc(Cl)cc1 0.381%
CCOC(=O)c1c(S(=O)(=O)N2CCCC(C(=O)NCc3ccccc3OC)C2)c(C)n(C)c1C (stereo not drawn) 1.41%
CCc1nc(SC)ncc1C(=O)N1CCN(c2cc(C)ccc2C)CC1 -13.7%
Cc1ccc(NC(=O)c2ccc(=O)n(Cc3ccccc3C)c2)c(C)c1 0.557%
Cc1ccc(CN2CCCn3nc(C(=O)NCCc4cccc(C)c4)cc3C2=O)cc1 1.24%
NC(=O)C1CCN(S(=O)(=O)c2ccc(N3CCCCS3(=O)=O)cc2)CC1 1.04%
COc1cccc(CNC(=O)C2CCCN(c3nc4ccccc4n4cccc34)C2)c1 (stereo not drawn) 8.55%
Cc1nn(C)c2c1c(-c1ccccc1)cc(=O)n2CC(=O)NC(C)C -9.38%
Cc1ccc(CN2CCCn3nc(C(=O)NCCc4ccccc4Cl)cc3C2=O)cc1 -2.13%
COc1ccc(CCNCc2ccc3c(c2)n(C)c(=O)n3C)cc1OC -4.8%
Cc1ccc(CNC(=O)c2ccc3c(O)c(S(=O)(=O)c4ccc(Cl)cc4)c(=O)[nH]c3c2)cc1 -1.89%
Clc1ccc(Nc2c(-c3ccccc3Cl)nc3ccc(Cl)cn23)cc1 -1.25%
Cc1c(C(=O)Nc2ccccc2Cl)oc2ccc(S(=O)(=O)N3CCCCC3)cc12 -3.71%
CCCn1c2ccc(F)cc2c2nnc(SCCN(CC)CC)nc21 -2.45%
Cc1ccc(C(=O)Nc2cccc(C(=O)OCc3cc(=O)n4nc(C5CC5)sc4n3)c2)cc1 0%
CCCOc1ccc(C2CC(=O)Nc3c2c(=O)n(C)c(=O)n3C)cc1OC (stereo not drawn) 5.64%
COCC(C)Nc1ncnc2c1cnn2-c1ccc(C)c(C)c1 (stereo not drawn) 4.7%
COc1ccc(-n2nc(C(=O)NCc3ccc(F)cc3Cl)c3c4ccccc4n(C)c3c2=O)cc1Cl -5.31%
CCOc1ccc(N2CC(NC(=O)C3CC3)CC2=O)cc1 (stereo not drawn) -8.09%
CCCCN(CC)CCCNC(=O)Cn1ncc2c3ccccc3n(Cc3ccc(F)cc3)c2c1=O -3.71%
Cc1cccc(C(=O)Oc2c(Sc3ccccc3)c(C)nn2C(C)(C)C)c1 1.98%
Cn1c(=O)c(=O)n(C)c2cc(S(=O)(=O)N3CCN(c4ccccc4)CC3)ccc21 -6.8%
CC(NC(=O)c1ccc2c(c1)sc1nc(-c3ccccc3)cn12)C12CC3CC(CC(C3)C1)C2 (stereo not drawn) 3.45%
COc1ccc(S(=O)(=O)NCc2nc3nc(C)cc(C)n3n2)cc1OC 4.41%
CCc1nn(CC(=O)Nc2ccc(NC(C)=O)cc2)c(=O)c2cc3sccc3n12 1.41%
COc1ccc(CNC(=O)CSc2c3c(nc4ccc(Cl)cc24)CCCC3)cc1 -7.05%
Cc1ccc(S(=O)(=O)N(CCc2ccccc2)CC(=O)Nc2ccc(Br)cc2)cc1 22.5%
COCCNC(=O)CN1C(=O)c2cccnc2Oc2ccc(Cl)cc21 -0.407%
CCOc1ccc(NC(=O)N2CCN3CCCCC3C2)cc1 (stereo not drawn) -6.94%
CCOC(=O)c1ccc(N2C(=O)c3n[nH]c(-c4ccco4)c3C2c2cccc(O)c2)cc1 (stereo not drawn) -3.91%
Cc1cccc(NC(=O)c2oc3ccccc3c2NC(=O)Cc2coc3ccc(C(C)C)cc23)c1 1.12%
COc1ccc(-c2nc(CCNC(=O)c3ccc(Br)o3)cs2)cc1 -29.5%
O=[N+]([O-])c1cc(-c2nc(-c3ccccc3)no2)ccc1N1CCOCC1 -3.8%
CCOc1ccccc1NC(=O)C1=C(C)Nc2ncnn2C1c1ccc(C)o1 (stereo not drawn) 4.24%
CCc1ccccc1NC(=O)Cn1c(SCc2ccc(F)cc2)nc2ccncc21 -1.68%
CCc1cccc(CC)c1NC(=O)CCS(=O)(=O)c1ccc2c(c1)CCN2C(C)=O -0.205%
COc1ccc(-c2nc(CNS(=O)(=O)c3cccc(F)c3)cs2)cc1 0.4%
O=C(CCCn1c(=O)c2cccn2c2ccccc21)NCc1ccccc1Br 6.69%
Cc1ccc(Nc2sc(C(=O)c3ccccc3)c(N)c2C(N)=O)cc1 -8.29%
CC1CCN(C(=O)C2COc3ccccc3C2)CC1 (stereo not drawn) 1.66%
CNC(=O)c1cnc2sc(N3CCCCCC3)nn2c1=O -1.05%
COc1ccc(C(=O)Nc2nc3ccccc3n2CCOc2ccc(Cl)cc2)cc1 -7.16%
CCOc1ccc(N(CC)C(=O)CCc2nc(-c3ccccc3F)no2)cc1 -25%
CCC(Sc1nnc(-c2ccc(OC)c(OC)c2)c(-c2ccc(OC)c(OC)c2)n1)C(=O)NC1CCCC1 (stereo not drawn) -8.46%
Cc1cccn2c(=O)cc(CSc3nnc(NC(=O)c4ccc(F)cc4)s3)nc12 -6.82%
CCc1ccc(NC(=O)C(Cc2ccccc2)NS(=O)(=O)c2ccc3c(c2)c(=O)n(C)c(=O)n3C)cc1 (stereo not drawn) -8.98%
Cc1nc(-n2nc(C)c(CCC(C)C)c2C)sc1C(=O)Nc1cccc(Cl)c1 1.94%
Cc1cccc(C)c1NC(=O)c1sc(-n2nc(C)c(Cc3ccc4c(c3)OCO4)c2C)nc1C 0.84%
Clc1ccc(NCc2nc3ccccc3n2CCOc2ccccc2)cc1 -13.6%
COc1ccc(Cl)cc1NC(=O)Cn1c(=O)c2ccccc2n2nncc12 -1.14%
Cc1ccc(NC(=O)Cn2nc3c(cc2=O)CCCC3)cc1Cl 1.31%
CCN(C(=O)CSc1nc2ccccc2nc1Cc1ccc(F)cc1)c1cccc(C)c1 3.89%
CCc1ccc(NC(=O)Cn2cc(S(=O)(=O)c3ccc(F)cc3)c(=O)c3cc(OC)ccc32)cc1 -18.4%
CC(=O)c1ccc(NC(=O)CCc2c(C)nn(-c3ccc4nnc(C)n4n3)c2C)cc1 -1.29%
CC(C)CC(C(=O)NCC1CCN(Cc2ccc(F)cc2)CC1)N1Cc2ccccc2C1=O (stereo not drawn) -18.4%
COc1ccc(NC(=O)C2CCC(CNS(=O)(=O)c3ccc(Br)s3)CC2)c(OC)c1 (stereo not drawn) -2.45%
COc1cc(NC(=O)N2CCC(CN3CCCCCC3)CC2)cc(OC)c1OC -16%
O=C(CSc1nc(-c2ccccc2)nc2cc(=O)[nH]n12)Nc1ccccc1 -2.2%
Cc1ccccc1C(=O)N1c2ncnn2C2(CCCCC2)[C@@H]2CCCC[C@@H]21 -18.3%
CCc1nc(-c2ccc(C)c(S(=O)(=O)N3CCN(c4ccc(C(C)=O)cc4)CC3)c2)no1 3.46%
O=C(NCCn1cc(SCc2ccc(F)cc2)c2ccccc21)c1cccs1 -1.22%
CCn1cc(C(=O)N2CCN(c3cc(Cl)ccc3C)CC2)c(=O)c2cc(S(=O)(=O)N3CCCCC3)ccc21 -1.13%
